Measured values from patent US20200347138A1 (INDIAN INSTITUTE OF SCIENCE, published 2020).

T1: CR/FNII domain of canine DEC205, GST fusion protein (canine)
T1 construct: Expressed in E. coli BL21 from pGEX4T1, purified on GSH matrix as a 45 kDa GST fusion; exact limits of the insert are uncertain; also called canine CR/FNII; CR/FNII N-Terminal domain; not shown: glutathione S-transferase (GST) fusion partner from expression vector pGEX4T1
T1 chain: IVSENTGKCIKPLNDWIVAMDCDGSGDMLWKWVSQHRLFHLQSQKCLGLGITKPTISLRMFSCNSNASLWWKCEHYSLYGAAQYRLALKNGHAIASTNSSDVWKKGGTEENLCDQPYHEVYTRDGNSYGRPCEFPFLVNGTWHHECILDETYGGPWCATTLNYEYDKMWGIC


Molecular target: T1, CR/FNII domain of canine DEC205, GST …
Experiment: SPR, Biacore 2000, CR/FNII immobilised on CM5 chip, ScFv-CS as analyte

Row | Kd [nM] | koff [s⁻¹] | kon [M⁻¹ s⁻¹] | Binder
1 | 0.2 | – | – | ScFv-CS 83 (yeast library ScFv 83 fused to Core Streptavidin) (scFv, domain: Core Streptavidin; The insert was PCR amplified from the yeast display vector, so flanking residues may differ from the entry; Purified on DEAE-Sephacel; not shown: histidine tag) ASQVQLQQSGPGLVKPSQTLSLTCAISGDSVSSNSAAWNWLRQSPSGGLDWLGRTYYGSKWNNDYAASVKGRMTITPDTSKNQFSLQLNSVTPDDTAVYYCARTRGGYHYDYWGQGTLVTVSSGILGSGGGGSGGGGSGGGGSNFMLTQPHSVSQSPGETVTISCTGSSGSIASNFVQWYQQRPGTLPTTVIFDNDKRPSGVPDRVSGSVDSSSNSASLTISGLTAGDEADYYCQYCGNNVRVFGGGTQLTVLSGILEQKLISEEDL[about 120 residues omitted here]
2 | 1.1 | – | – | ScFv-CS 37 (yeast library ScFv 37 fused to Core Streptavidin) (scFv, domain: Core Streptavidin; The insert was PCR amplified from the yeast display vector, so flanking residues may differ from the entry; Purified on DEAE-Sephacel; not shown: histidine tag) ASQVQLQQSGPGLVKPSQTLSLTCAISGDSVSSNTAAWNWIRQSPWRGLEWLGRTYYRSQWNTDYAVSVKSRITINPDTSKNQFSLQLNSVTPEDTAVYYCARGWSGMDVWGQGTTVTVSSGSASAPTGIIGSGGGGSGGGGSGGGGSEIVMTQSPGTLSLSPGERATLSCRASQSVSSNYLAWYQQKPGQAPRLVIYGASSRASGIPDRFSGSGSGTDFTLTISRLEPEDFAVYYCQQYGSSHSIRFGQGTQLEIKSGILEQKLISEEDL[about 120 residues omitted here]
3 | 1.2 | – | – | ScFv-CS 42 (yeast library ScFv 42 fused to Core Streptavidin) (scFv, domain: Core Streptavidin; The insert was PCR amplified from the yeast display vector, so flanking residues may differ from the entry; Purified on DEAE-Sephacel; not shown: histidine tag) ASQVQLQQSGPGLVKPSQTLSLTCAISGDSVSSNSAAWNWIRQSPSRGLEWLGRTYYRSKWYNDYAVSVKSRITIKPDTSKNQFSLQLNSVTPDDTAVYYCARSASYQEYLQSWGQGTLVTVSSGILGSGGGGSGGGGSGGGGSEIVLTQSPGTLSVSPGERATLSCRASQSVSRNLAWFQQKPGQAPRLLMYGASTRATGIPARFSGSGSGTEFTLTISSLQSEDFAAYYCQQYDQWPRTFGQGTKVEIKSGILEQKLISEEDL[about 120 residues omitted here]
4 | 0.08 | 3.2e-05 | 660000 | ScFv-CS 92 (yeast library ScFv 92 fused to Core Streptavidin) (scFv, domain: Core Streptavidin; The insert was PCR amplified from the yeast display vector, so flanking residues may differ from the entry; Purified on DEAE-Sephacel; not shown: histidine tag) ASQVQLQQSGPGLVRPSQTLSLTCAISGDSVSRDTAAWNWVRQSPWGGLEWLGRTYYRSEWNTDYAVSLKSRMTITPDTSKSQFSLQLNSVTPEDTAVYYCARGWSGMDVWGHGTTVTVSAGSASAPTGILGSGGGGSGGGGSGGGGSEIVMTQSPGTPFLSPGERATLSCRASQSVSSNYSAWYQQKPGQAPRLVIYGASSRATGIPDRFSGSGSGTDFTLTISRLEPEDYAVYYCQQYGSSPLISFGQGTRLEIKSGILEQKLISEEDL[about 120 residues omitted here]
